Source: PubChem BioAssay AID488969 (Vanderbilt High Throughput Screening Facility, 2010)
In all, about 110,000 compounds were measured (“z-score”: median about -0.1, highest 2% from about 2 on). This is one part of the list.

Molecular target: Metabotropic glutamate receptor 8 (Rattus norvegicus) (UniProt P70579)
Test: mGluR8 Gi/Go-coupled signaling modulation – cell-based, rat, thallium flux, HTS, primary screen (AID 488969)
Details: HEK293 rat mGluR8, GIRK (G protein-gated inwardly rectifying potassium channel) thallium flux, FluoZin2; at 10 µM; stronger effect = higher value; submaximal glutamate (EC20) added with thallium

UniProt P70579, sequence (P70579 whole entry, looked up): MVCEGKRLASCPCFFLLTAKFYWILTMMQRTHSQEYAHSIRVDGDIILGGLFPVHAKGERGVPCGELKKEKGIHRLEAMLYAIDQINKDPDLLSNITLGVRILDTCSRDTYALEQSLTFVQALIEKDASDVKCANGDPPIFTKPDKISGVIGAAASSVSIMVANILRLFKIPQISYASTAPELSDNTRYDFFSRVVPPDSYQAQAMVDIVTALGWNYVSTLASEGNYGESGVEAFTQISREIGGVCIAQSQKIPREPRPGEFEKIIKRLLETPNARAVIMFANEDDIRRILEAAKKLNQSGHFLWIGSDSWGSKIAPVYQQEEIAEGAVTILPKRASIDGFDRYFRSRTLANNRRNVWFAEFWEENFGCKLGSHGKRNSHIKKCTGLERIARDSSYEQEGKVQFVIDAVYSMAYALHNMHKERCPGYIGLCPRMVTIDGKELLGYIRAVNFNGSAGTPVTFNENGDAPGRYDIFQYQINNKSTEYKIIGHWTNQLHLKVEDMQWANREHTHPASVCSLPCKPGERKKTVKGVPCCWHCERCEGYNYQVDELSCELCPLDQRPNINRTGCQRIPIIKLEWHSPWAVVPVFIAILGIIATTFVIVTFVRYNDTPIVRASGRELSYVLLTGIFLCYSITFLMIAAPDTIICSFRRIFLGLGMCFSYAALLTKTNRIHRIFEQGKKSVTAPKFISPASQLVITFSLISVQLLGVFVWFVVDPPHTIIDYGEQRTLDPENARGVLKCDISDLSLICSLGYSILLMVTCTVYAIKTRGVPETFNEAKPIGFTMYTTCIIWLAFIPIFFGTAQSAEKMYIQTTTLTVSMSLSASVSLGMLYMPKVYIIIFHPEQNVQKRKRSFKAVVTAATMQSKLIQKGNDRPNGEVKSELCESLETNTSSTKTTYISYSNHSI

| SMILES | z-score |
| --- | --- |
| COc1ccc(N(CN2C(=O)c3ccccc3C2=O)C(=O)COc2ccc(Cl)cc2Cl)cc1 | -0.172 |
| Cc1c(NC(=O)c2ccccc2F)c(=O)n(-c2ccccc2)n1C | -0.242 |
| O=C(c1cnccn1)N1CCN(S(=O)(=O)c2ccc3ccccc3c2)CC1 | 0.0311 |
| CC1CCc2nn(CC(=O)Nc3c(F)cc(F)cc3Br)cc2C1 (stereo not given) | -0.123 |
| Cc1nn(Cc2ccccc2Cl)c(C)c1NC(=O)c1noc2c1CCCCC2 | -0.931 |
| CCCn1c(=O)c(F)cn(Cc2ccc(OC)c([N+](=O)[O-])c2)c1=O | 0.209 |
| Cc1cc(C(=O)N/N=C/c2cccc([N+](=O)[O-])c2)c(C)o1 | 0.0137 |
| Cn1cnc(C(F)(F)F)c1-c1ccc([N+](=O)[O-])cc1 | -0.0893 |
| Cc1cc(C)cc(-n2nnc(C(=O)NCc3ccc4c(c3)OCO4)c2N)c1 | 1.32 |
| CCOC(=O)CNC(=O)CSc1nc(NCc2ccccc2)nc(N(C)C)n1 | -0.893 |
| C=C(C)c1cccc(C(C)(C)NC(=O)Nc2ccccc2OCC)c1 | -0.0167 |
| CCOC(=O)c1c(C)noc1CP(=O)(c1ccccc1)c1ccccc1 | 0.284 |
| CN1CCN(C(=O)c2cnn(-c3ccccc3)c2NC(=O)c2ccccc2F)CC1 | 0.658 |
| Cc1ccc(-n2c(CCC(=O)O)ccc2-c2cccs2)cc1 | -0.204 |
| Cc1occc1C(=O)Nc1cccc(Cn2cccn2)c1 | -0.737 |
| c1ccc(CCn2nnnc2CN2CCCc3ccccc32)cc1 | -0.227 |
| Cc1ccc2c(CC(=O)NC3=NCCS3)coc2c1 | -0.993 |
| COc1ccc(-c2nc(-c3cccc(C)c3)[nH]c(=O)c2C#N)cc1 | -0.296 |
| Cc1ccc(CNC(=O)C2CC(c3ccccc3[N+](=O)[O-])=NO2)cc1 (stereo not given) | -0.165 |
| CCOc1ccc(-c2nnn(CC(=O)NCc3ccc4c(c3)OCO4)n2)cc1 | -0.161 |
| COc1ccc(C(=O)Nc2ccc3c(c2)OCO3)cc1OC | -0.089 |
| CC1CSc2nnc(CCc3ccccc3)n21 (stereo not given) | -0.325 |

| SMILES | z-score |
| --- | --- |
| O=C(c1ccc(F)cc1)[C@@H]1[C@@H](C(=O)c2ccccc2)[C@@]2(C(=O)Nc3ccccc32)[C@H]2c3ccccc3C=CN12 | -0.164 |
| O=C(Cc1cccs1)Nc1ccc2c(c1)C(=O)OC2 | 0.917 |
| COc1ccccc1CNC(=O)CCS(=O)(=O)c1ccc2c(c1)CCCN2C(C)=O | 0.626 |
| Clc1ccccc1Cn1nnc(-c2cccs2)n1 | -0.411 |
| CCOC(=O)c1cnn(-c2ccccc2)c1-n1cccc1C(=O)C(=O)Nc1ccccc1C(F)(F)F | 0.509 |
| CC(=O)Oc1ccc2c(c1)C(=O)c1ccccc1CO2 | -0.297 |
| Cc1ccc2c(c1)cc(CN(Cc1cccs1)C(=O)c1ccco1)c1nnnn12 | -0.454 |
| c1ccc(Cn2c(CNc3nc4ccccc4n3CCN3CCCCC3)nc3ccccc32)cc1 | 1.4 |
| CC(C)C(OC(=O)c1cc2c(s1)CCCCC2)C(=O)NC(N)=O (stereo not given) | 0.134 |
| CCOC(=O)C1=C(CSc2nc(CC)c(C)cc2C#N)OC(N)=C(C#N)C1c1ccc(OC)cc1 (stereo not given) | -0.213 |
| COc1ccccc1C1NC(=O)NC(C)=C1C(C)=O (stereo not given) | 0.863 |
| O=C(Nc1cccc(NC(=O)c2ccco2)c1)c1cnccn1 | 0.319 |
| CC(C)n1nc(C(=O)NCCc2ccc(S(N)(=O)=O)cc2)c2ccccc2c1=O | 0.514 |
| CCCN1C(=O)/C(=C/c2ccc(C)s2)SC1=Nc1ccc(OC)cc1 | -0.117 |
| CCCCOCCCNC(=O)c1ccc(NC(C)=O)cc1 | 0.132 |
| COc1ccccc1C(=O)Nc1ccc(S(=O)(=O)Nc2cc(C)nc(C)n2)cc1 | -0.272 |
| CCN(Cc1cc2ccccc2[nH]c1=O)C(=O)c1cccnc1 | 0.367 |
| CCc1sc(C(=O)Nc2ccc(F)cc2C)cc1C | -0.0957 |
| Cc1sc2ncn(CC(=O)NCC(=O)N(C)Cc3ccccc3)c(=O)c2c1C | 0.601 |
| CC1Oc2ccccc2N(CC(=O)N2CCc3ccccc32)C1=O (stereo not given) | 0.157 |
| O=C(CC1(O)C(=O)N(CN2CCOCC2)c2ccccc21)c1ccccc1 (stereo not given) | 0.409 |
| CCn1c(=O)cc(OCC(=O)N2CCN(c3cccc(C(F)(F)F)c3)CC2)c2ccccc21 | -0.303 |

| SMILES | z-score |
| --- | --- |
| CC(c1ccccc1)N1C(=O)C2C3CCC(C3)C2C1=O (stereo not given) | -0.0398 |
| Cc1ccc(-c2cc(C(=O)Nc3ccc4c(c3)OCCO4)c3ccccc3n2)cc1 | 0.0222 |
| C=CCOC(=O)C1=C(C)NC(SC)=C(C#N)C1c1cccs1 (stereo not given) | 1.8 |
| CN(C)c1ccc(NC(=O)COC(=O)c2cc(Cl)ccc2[N+](=O)[O-])cc1 | -0.254 |
| CSc1nnnn1-c1ccc(C(=O)OCC(=O)N2CCOCC2)cc1 | -0.227 |
| O=C(CN1CCCCCC1)N1c2ccccc2Sc2ccc(C(F)(F)F)cc21 | 0.9 |
| CC(NC(=O)C(=O)NN=C1CCCCCCC1)c1ccccc1 (stereo not given) | -0.78 |
| CCc1ccccc1NC(=O)CSc1nnc([C@@H]2CCCN2C(=O)OC(C)(C)C)o1 | -1.16 |
| Cc1ccc(NC(=O)c2cc(C)n(-c3ccccc3)c2C)cc1 | 0.165 |
| CCCCC(=O)NC(=S)Nc1cccc(NC(=O)c2ccco2)c1 | -0.0855 |
| Cc1nc(NCc2ccco2)c2c(C)c(C)sc2n1 | -1.09 |
| CCCCSc1nnc(-c2ccc(NC(=O)CC)cc2)n1C | 0.117 |
| Cc1ccc(NC(=O)Cn2c(CCC(=O)O)ccc2-c2cccs2)cc1 | -0.502 |
| CC(=O)N(Cc1cccnc1)Cc1cc2ccc(C)cc2[nH]c1=O | -0.467 |
| Cc1ccc(S(=O)(=O)N(C)/N=C/C=C/c2ccccc2)cc1 | -0.513 |
| CC(=O)c1cccc(NC(=O)N2CCCc3ccccc32)c1 | -0.731 |
| CCCSCCCNC(=O)c1cc2c(s1)CS(=O)(=O)C2 | -0.247 |
| Cc1cc(C)nc(NC(=O)c2cccc(Cl)c2)n1 | 0.26 |
| O[C@@H]1C2CCCC1[C@]1(O)CCCCC1C2 (stereo not given in full) | -0.021 |
| O=C(OCC1COc2ccccc2O1)c1c(F)cccc1F (stereo not given) | 0.396 |
| CON/C=C(\C=Nc1ccc(F)cc1)c1ncc(C(F)(F)F)cc1Cl | -0.0959 |
| O=C(O)CCc1ccc(-c2cccs2)n1-c1ccc(C(=O)O)cc1 | 0.28 |

| SMILES | z-score |
| --- | --- |
| CCOC(=O)c1c(NC(=O)COC(=O)c2c(C)noc2C)sc2c1CCC2 | -0.391 |
| CN(C)C(CNC(=O)c1cccnc1Sc1ccccc1)c1ccco1 (stereo not given) | 0.416 |
| NC(=O)Cc1nc(-c2ccccc2)cs1 | -0.151 |
| CCN(CC)S(=O)(=O)c1ccc(C(=O)Nc2nnc(C(C)C)s2)cc1 | -0.2 |
| Cc1n[nH]c(=S)n1/N=C/c1ccc(OCc2ccc(Cl)cc2)cc1 | 0.0785 |
| Cc1cc(-c2ccccc2)nc(N/N=C/c2ccc([N+](=O)[O-])cc2)n1 | 0.124 |
| CCCC(=O)N(c1ccc(OC)cc1)C1C=CS(=O)(=O)C1 (stereo not given) | -0.0143 |
| O=C(CSCc1ccccc1)N/N=C/c1ccccc1OCc1ccccc1 | 0.274 |
| Cc1cc2nc(CCN3CCOCC3)n(S(=O)(=O)c3ccc(C(C)(C)C)cc3)c2cc1C | 0.425 |
| COc1ccccc1Oc1coc2cc(OC(=O)N3CCOCC3)ccc2c1=O | -0.131 |
| COc1cccc(C(=O)NCc2nnc(SCC(=O)Nc3nccs3)n2-c2cccc(C)c2)c1 | -0.554 |
| CC(=O)C1=C(O)C(=O)N(Cc2ccco2)C1c1ccc2c(c1)OCO2 (stereo not given) | -0.881 |
| CC(Sc1ccccc1)C(=O)Nc1ccc(N2CCOCC2)cc1 (stereo not given) | 0.468 |
| CCCc1cc(C(=O)NNC(=S)NCC2CCCO2)cs1 (stereo not given) | -0.0283 |
| CCOC(=O)CN1CCc2c(C)nc3c(-c4ccc(OC)c(OC)c4)cnn3c21 | 0.0936 |
| CCOC(=O)Cc1csc(NC(=O)c2ccc(NC(C)=O)cc2)n1 | 0.627 |
| COc1ccc(OCCCC(=O)NCCc2ccccc2)cc1 | -0.148 |
| COc1ccc(NC(=O)c2cc(C(C)C)on2)cc1OC | -0.725 |
| N#CC(C(=O)Nc1ccc(Cl)c(Cl)c1)=C1Nc2ccccc2N1 | 0.855 |
| CSc1ccc(S(=O)(=O)NC2CCCCCC2)cc1 | 1.93 |
| COCC(=O)N(C)C1(c2nnnn2CCOC(=O)Nc2cccc3ccccc23)CCCC1 | -0.0298 |
| CCCc1cc(=O)[nH]c(NCc2ccc(Cl)cc2)n1 | -0.348 |

| SMILES | z-score |
| --- | --- |
| COC(=O)c1cc(C)sc1NC(=O)c1cccnc1 | -0.497 |
| Cc1csc(NC(=O)C2C3C=CC(C3)C2C(=O)O)n1 (stereo not given) | 0.819 |
| CCOC(=O)COc1ccc(Br)cc1C1NC(=O)NC(C)=C1C(=O)NCc1ccccc1 (stereo not given) | -0.34 |
| Cn1cnnc1SCC(=O)c1ccc2c(c1)OCCO2 | -0.351 |
| CCCCC(=O)Nc1cc(C)c2c(=O)oc3ccccc3c2n1 | -0.115 |
| Cn1cccc1/C=N/NC(=O)Cn1cnc2ccccc21 | -0.101 |
| Cc1cc(-c2ccccc2)c2c3c(cn2n1)c(=O)n(C)c(=O)n3C | -0.658 |
| COC(=O)C(NC(=O)c1ccc(F)cc1)(Nc1ncc(S(=O)(=O)c2ccc([N+](=O)[O-])cc2)s1)C(F)(F)F (stereo not given) | -0.342 |
| Cc1ccn2cc(CSc3ccccc3N)nc2c1 | -0.125 |
| OC(Cn1ccnc1)c1ccc(Cl)cc1Cl (stereo not given) | 0.579 |
| COc1ccc(C(C[N+](=O)[O-])n2nc(C)cc2C)cc1 (stereo not given) | 0.648 |
| Cc1ccc(SCC(=O)O/N=C(\N)c2ccc([N+](=O)[O-])cc2)cc1 | -0.289 |
| CCC1CCCCN1C(=O)CSc1nc2c(cnn2-c2ccc(C)cc2)c(=O)[nH]1 (stereo not given) | 0.0615 |
| CCOc1ccc(NC(=O)Nc2cc(OCC(F)(F)F)cc(OCC(F)(F)F)c2)cc1 | -0.0789 |
| COc1cccc(=O)c2c(C)n(-c3cc(C)cc(C)c3)c(C)c12 | -0.367 |
| CCOC(=O)N1CCC(Nc2c(OCC)c(=O)c2=O)CC1 | -0.0426 |
| CCN(CC)S(=O)(=O)c1ccc(NC(=O)CC(NC(C)=O)c2ccccc2)cc1 (stereo not given) | -0.224 |
| O=C1C2C(C(=O)N1CCc1ccccc1)C1C=CC2C12CC2 (stereo not given) | 0.134 |
| CC(C)(C)CNc1cc(N2CCCC2)ccc1[N+](=O)[O-] | -0.495 |
| CN1CCN(S(=O)(=O)c2ccc(Br)s2)CC1 | -0.0381 |
| NC(=O)C1(N2CCCCC2)CCN(C(=O)CSc2nc3ccccc3[nH]2)CC1 | -0.432 |
| Cc1ccc(S(=O)(=O)N2CCN(S(=O)(=O)N3CCOCC3)CC2)cc1C | 0.35 |
